Experimental data published in PubChem BioAssay AID1508624 (National Center for Advancing Translational Sciences (NCATS), 2021).
The campaign covered roughly 48,000 compounds. About 120 (0.25%) were called active. Not shown: some 4% with an inconclusive outcome. The call rests on the fitted dose curve; in most records, active means well fitted activation curve with a large enough effect; inconclusive means small, poorly fitted or top-dose-only effect, or another doubt; inactive means no such curve, though single readings can be large or run the other way. Some of the results follow.

assay: Primary qHTS for Identification of Small Molecule Activators of Huntingtin-Antisense Promoter Activity; details: HEK293 HTT-AS promoter firefly luciferase reporter, 24 h; series mostly up to 57.5 µM; activity change, positive = activation: at the top concentration; further: nearly all actives have a fitted effect of over 55% in size
Summary of the method: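 Luminescence was read after Dual-Glo reagent and a 10 min room-temperature incubation. Values were normalized to vehicle (0% activity) and zero RLU (-100% activity). Reporter HEK293 cells had been exposed to compounds (up to 57.5 uM final) for 24 h.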

Row | SMILES | activity change, positive = activation
1 | CCc1cccc(C)c1Nc1c(-c2ccc(N(C)C)cc2)nc2cnccn12 | inactive: -20.9%
2 | CCCOc1ccc(CN2C(=O)C(=O)c3cccc(C)c32)cc1 | inactive: -28.3%
3 | Cc1ccc(-n2nc(C)c3c(C)c(CCC(=O)NCc4ccc(Cl)cc4)c(C)nc32)cc1 | inactive: -4.66%
4 | CCOc1ccc(CNCCSc2nnnn2C)cc1 | inactive: -7.62%
5 | COc1ccc(-c2cc(C(=O)Oc3ccc(C#N)cc3)no2)cc1 | inactive: 5.85%
6 | COc1ccc(C(C)=O)c(O)c1 | inactive: -8.91%
7 | COc1ccc(CNC(=O)C(CC(C)C)NS(=O)(=O)c2ccc3c(c2)CCN3C(C)=O)cc1 (stereo not drawn) | inactive: 17.6%
8 | COc1ccc(-n2nc(C(N)=O)c3c2C(=O)N(c2ccc(N4CCCCC4=O)cc2)CC3)cc1 | inactive: -11.5%
9 | CCCc1cc(=O)[nH]c(SCc2nc(-c3ccccc3)no2)n1 | inactive: -13.4%
10 | O=S1(=O)c2ccccc2N(Cc2ccc(F)cc2)c2ccccc21 | inactive: -40.3%
11 | COc1ccc(Nc2nnc(-n3nc(C)cc3C)c3ccccc23)cc1 | inactive: -4.76%
12 | O=C(NCCOCCn1c(=O)oc2ccccc21)Nc1ccc(F)cc1F | inactive: -14.1%
13 | Oc1c(C(c2ccc(Cl)cc2Cl)N2CCN(Cc3ccccc3)CC2)sc2nc(-c3ccco3)nn12 (stereo not drawn) | inactive: 9.99%
14 | Cc1ccc(CNC(=O)Cn2ccn(-c3ccc(F)c(F)c3)c(=O)c2=O)cc1 | inactive: -6%
15 | CCC(Sc1nc2ccncc2[nH]1)C(=O)Nc1cc(C)ccc1C (stereo not drawn) | inactive: -25.8%
16 | CCCn1c(=N)c(C(=O)NCc2ccco2)cc2c(=O)n3cc(C)ccc3nc21 | inactive: -0.352%
17 | COCCNC(=O)CCCn1c(SCc2ccccc2C)nc2c(sc3ccccc32)c1=O | inactive: -48.7%
18 | CCn1cc(/C=C(\NC(=O)c2ccccc2Cl)C(=O)NCCCn2ccnc2)c2ccccc21 | inactive: -12.7%
19 | Cc1ccc(C2N3CC4(C)CN2CC(c2ccccc2)(C3)C4=O)cc1 (stereo not drawn) | inactive: -2.58%
20 | CCOCCCNC(=O)C(c1ccc(Cl)cc1)N(Cc1ccc2c(c1)OCO2)C(=O)c1ccc(NC(C)=O)cc1 (stereo not drawn) | inactive: -18.2%
21 | Cc1ccc(CNC(=O)c2ccc(N3Cc4ccccc4Oc4ncccc43)s2)cc1 | inactive: -31.7%
22 | CCOc1ccc(C(=O)Nc2ccc(C(=O)OCc3cc(=O)n4c(C)csc4n3)cc2)cc1 | inactive: -35%
23 | CC(C)c1nc(CN(C)C(=O)N[C@H](C(=O)N[C@@H](Cc2ccccc2)C[C@H](O)[C@H](Cc2ccccc2)NC(=O)OCc2cncs2)C(C)C)cs1 | inactive
24 | COC(=O)c1ccccc1NC(=O)Cn1c(=O)n(-c2ccc(C)cc2)c(=O)c2ccccc21 | inactive: -33.8%

Row | SMILES | activity change, positive = activation
25 | CCOc1ccc(NC(=O)Cn2nc(CC)n3c(cc4sccc43)c2=O)cc1 | inactive: -3.97%
26 | Cc1ccc2c(c1)c1c(c(=O)n(-c3cccc(Cl)c3)c(=O)n1CC(N)=O)n2C | inactive: -8.83%
27 | COc1cc(Nc2nc3c(S(=O)(=O)c4cccc(Cl)c4)nnn3c3ccsc23)cc(OC)c1 | inactive: -6.51%
28 | CCC(=O)N1CCc2cc(S(=O)(=O)NCCC(=O)Nc3ccc(C)cc3C)ccc21 | inactive: 5.56%
29 | COc1ccccc1OCCNCC(O)COc1cccc2[nH]c3ccccc3c12 (stereo not drawn) | inactive
30 | O=C1Nc2ccccc2C1Cc1ccc(Br)cc1 (stereo not drawn) | inactive: -18.1%
31 | CC1CCc2noc(NC(=O)c3ccc([N+](=O)[O-])cc3)c2C1 (stereo not drawn) | inactive: 7.87%
32 | Cc1ccc(NC(=O)CN2C(=O)c3ccccc3Sc3ccc(C(=O)N4CCOCC4)cc32)cc1C | inactive: -17.9%
33 | Cc1ccc(NC(=O)CSc2nc3nccnc3c(=O)n2CCc2c[nH]c3ccccc23)cc1C | inactive: -23.9%
34 | O=C(CSc1nc(=O)n(Cc2ccccn2)c2c1CCC2)Nc1cccc(Cl)c1 | inactive: -32.4%
35 | COCCNC(=O)CSc1nc(-c2ccc(C)cc2)[nH]c1-c1ccc(OC)cc1 | inactive: -11.2%
36 | CCc1ccc(NC(=O)CN2C(C(=O)OC)=C(c3ccccc3)c3ccccc3S2(=O)=O)cc1 | inactive: -25%
37 | CC(C)CCNC(=O)C1CCC(CNS(=O)(=O)c2cccc3nsnc23)CC1 (stereo not drawn) | inactive: -5.96%
38 | CCCc1nn2c(=O)cc(COC(=O)c3ccccc3NC(=O)c3ccc(OCC)cc3)nc2s1 | inactive: 24.7%
39 | O=C(Nc1ccc(Cl)cc1F)c1cc(S(=O)(=O)NC2CCCCCC2)ccc1F | inactive: -31%
40 | Cc1ccc(C(=O)c2cn(Cc3ccccc3)c3ccccc3c2=O)cc1 | inactive: 11.3%
41 | Cc1ccccc1OCC(=O)Nc1ccccc1C(=O)OCc1cc(=O)n2nc(C3CC3)sc2n1 | inactive: 0%
42 | Cc1cccc(NC(=O)c2oc3ccccc3c2NC(=O)Cc2coc3cc(C)cc(C)c23)c1 | inactive: -1.16%
43 | Cc1ccc(-c2c3c(=O)n(C)c(=O)n(C)c3c3c(C)nc4ccccc4n23)cc1 | inactive: 2% [at 11.5 µM, percent change from vehicle, -100% = no light]
44 | COc1ccc(NC(=O)Cn2ccn(-c3ccc(C)c(C)c3)c(=O)c2=O)cc1Cl | inactive: -11.6%
45 | Cc1cc(N2CCN(c3ccc(F)cc3)CC2)n2cnnc2n1 | inactive: -9.21%
46 | COc1ccc(Cl)cc1NC(=O)CSc1nc(=O)[nH]c2c1CCC2 | inactive: -23.9%
47 | COc1ccccc1CNc1ncnc2c1nc1n2CCCC1 | inactive: -8.05%
48 | Cc1ccc(Cl)cc1NC(=O)c1cc(S(=O)(=O)N2CCOCC2)cn1C | inactive: -9.28%
